# Results as given in the supplement of paper PMC8728848.
# The other results are listed elsewhere or left out.
# Legend:
# Assay in all cases: glycan array binding signal (z-score within array); higher = stronger binding
# Conditions in all cases: glycan notation: IUPAC condensed, linker removed
# [1] = biological target: Fuc(a1-2)[GalNAc(b1-3)]Gal
# Outline: (§1)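 The binding signal is a Z-score computed within each array. Data were drawn from 3228 arrays in the Consortium for Functional Glycomics database, restricted to those with a known protein sequence. Scores were averaged over arrays of the same protein sequence at different concentrations or buffers, and over linkers, and negative values can be taken as non-binding.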
# [2] = biological target: Fuc(a1-3)GlcNAc
# Outline: as §1
# [3] = biological target: Fuc(a1-3)[Gal(b1-4)]Glc6S
# Outline: as §1
# [4] = biological target: Fuc(a1-3)[Gal(b1-4)]GlcNAc
# Outline: as §1
# [5] = biological target: Fuc(a1-3)[Gal(b1-4)]GlcNAc(b1-2)Man
# Outline: as §1
# [6] = biological target: Fuc(a1-3)[Gal(b1-4)]GlcNAc(b1-2)Man(a1-3)[Fuc(a1-3)[Gal(b1-4)]GlcNAc(b1-2)Man(a1-6)]Man(b1-4)GlcNAc(b1-4)GlcNAc
# Outline: as §1
# [7] = biological target: Fuc(a1-3)[Gal(b1-4)]GlcNAc(b1-2)Man(a1-3)[Fuc(a1-3)[Gal(b1-4)]GlcNAc(b1-2)Man(a1-6)]Man(b1-4)GlcNAc(b1-4)[Fuc(a1-6)]GlcNAc
# Outline: as §1
# [8] = biological target: Fuc(a1-3)[Gal(b1-4)]GlcNAc(b1-3)Gal(b1-3)[Fuc(a1-4)]GlcNAc
# Outline: as §1
# [9] = biological target: Fuc(a1-3)[Gal(b1-4)]GlcNAc(b1-3)Gal(b1-4)[Fuc(a1-3)]GlcNAc
# Outline: as §1
# [10] = biological target: Fuc(a1-3)[Gal(b1-4)]GlcNAc(b1-3)Gal(b1-4)[Fuc(a1-3)]GlcNAc(b1-3)Gal(b1-4)[Fuc(a1-3)]GlcNAc
# Outline: as §1
# [11] = biological target: Fuc(a1-3)[Gal(b1-4)]GlcNAc(b1-3)GalNAc
# Outline: as §1
# [12] = biological target: Fuc(a1-3)[Gal(b1-4)]GlcNAc(b1-6)GalNAc
# Outline: as §1
# [13] = biological target: Fuc(a1-3)[Gal(b1-4)]GlcNAc(b1-6)[Gal(b1-3)GlcNAc(b1-3)]Gal(b1-4)Glc
# Outline: as §1
# [14] = biological target: Fuc(a1-3)[Gal(b1-4)]GlcNAc6S
# Outline: as §1
# [15] = biological target: Fuc(a1-3)[Gal3S(b1-4)]Glc
# Outline: as §1
# [16] = biological target: Fuc(a1-3)[Gal3S(b1-4)]GlcNAc
# Outline: as §1
# [17] = biological target: Fuc(a1-3)[Gal3S(b1-4)]GlcNAc6S
# Outline: as §1
# [18] = biological target: Fuc(a1-3)[GalNAc(b1-4)]GlcNAc
# Outline: as §1
# [19] = biological target: Fuc(a1-3)[GalNAc(b1-4)]GlcNAc6S
# Outline: as §1
# [20] = biological target: Fuc(a1-4)GlcNAc
# Outline: as §1
# [21] = biological target: Fuc(b1-3)GlcNAc
# Outline: as §1
# [22] = biological target: Gal(a1-2)Gal
# Outline: as §1
# [23] = biological target: Gal(a1-3)Gal
# Outline: as §1
# [24] = biological target: Gal(a1-3)Gal(b1-3)GlcNAc
# Outline: as §1
# [25] = biological target: Gal(a1-3)Gal(b1-3)GlcNAc(b1-2)Man
# Outline: as §1
# [26] = biological target: Gal(a1-3)Gal(b1-3)GlcNAc(b1-2)Man(a1-3)[Gal(a1-3)Gal(b1-3)GlcNAc(b1-2)Man(a1-6)]Man(b1-4)GlcNAc(b1-4)GlcNAc
# Outline: as §1
# [27] = biological target: Gal(a1-3)Gal(b1-3)GlcNAc(b1-3)GalNAc
# Outline: as §1
# [28] = biological target: Gal(a1-3)Gal(b1-3)GlcNAc(b1-6)GalNAc
# Outline: as §1
# [29] = biological target: Gal(a1-3)Gal(b1-3)[Fuc(a1-4)]GlcNAc(b1-2)Man(a1-3)[Gal(a1-3)Gal(b1-3)[Fuc(a1-4)]GlcNAc(b1-2)Man(a1-6)]Man(b1-4)GlcNAc(b1-4)GlcNAc
# Outline: as §1
# [30] = biological target: Gal(a1-3)Gal(b1-4)Glc
# Outline: as §1
# [31] = biological target: Gal(a1-3)Gal(b1-4)GlcNAc
# Outline: as §1
# [32] = biological target: Gal(a1-3)Gal(b1-4)GlcNAc(b1-2)Man
# Outline: as §1
# [33] = biological target: Gal(a1-3)Gal(b1-4)GlcNAc(b1-2)Man(a1-3)[Gal(a1-3)Gal(b1-4)GlcNAc(b1-2)Man(a1-6)]Man(b1-4)GlcNAc(b1-4)GlcNAc
# Outline: as §1
# [34] = biological target: Gal(a1-3)Gal(b1-4)GlcNAc(b1-3)GalNAc
# Outline: as §1
# [35] = biological target: Gal(a1-3)Gal(b1-4)GlcNAc(b1-6)GalNAc
# Outline: as §1
# [36] = biological target: Gal(a1-3)Gal(b1-4)[Fuc(a1-3)]GlcNAc
# Outline: as §1
# [37] = biological target: Gal(a1-3)Gal(b1-4)[Fuc(a1-3)]GlcNAc(b1-2)Man(a1-3)[Gal(a1-3)Gal(b1-4)[Fuc(a1-3)]GlcNAc(b1-2)Man(a1-6)]Man(b1-4)GlcNAc(b1-4)GlcNAc
# Outline: as §1
# [38] = biological target: Gal(a1-3)GalNAc
# Outline: as §1
# [39] = biological target: Gal(a1-3)[Gal(a1-4)]Gal(b1-4)GlcNAc
# Outline: as §1
# [40] = biological target: Gal(a1-4)Gal(b1-3)GlcNAc(b1-2)Man(a1-3)[Gal(a1-4)Gal(b1-3)GlcNAc(b1-2)Man(a1-6)]Man(b1-4)GlcNAc(b1-4)GlcNAc
# Outline: as §1
# [41] = biological target: Gal(a1-4)Gal(b1-4)Glc
# Outline: as §1
# [42] = biological target: Gal(a1-4)Gal(b1-4)GlcNAc
# Outline: as §1
# [43] = biological target: Gal(a1-4)Gal(b1-4)GlcNAc(b1-2)Man(a1-3)[Gal(a1-4)Gal(b1-4)GlcNAc(b1-2)Man(a1-6)]Man(b1-4)GlcNAc(b1-4)GlcNAc
# Outline: as §1
# [44] = biological target: Gal(a1-4)Gal(b1-4)GlcNAc(b1-3)Gal(b1-4)Glc
# Outline: as §1
# [45] = biological target: Gal(a1-4)GlcNAc
# Outline: as §1
binder,measurement,setting,value
CpGal16 (Clavelina picta) (protein) MAKMITNYVGKRIECIMVATDMMSTVFSLASATGDLPFYINFRQRENSIVMNTRVHGKWQYEKSQSSGGMNFYEPFRLVVEVRPSVFKVTVSTMGEEDGITFNLQYSQITIKPDEIVAMHLGYCNLRSELLVTDL,glycan array binding signal (z-score),[1],-0.37
same,glycan array binding signal (z-score),[2],-0.387
same,glycan array binding signal (z-score),[3],-0.345
same,glycan array binding signal (z-score),[4],-0.419
same,glycan array binding signal (z-score),[5],-0.436
same,glycan array binding signal (z-score),[6],-0.517
same,glycan array binding signal (z-score),[7],-0.251
same,glycan array binding signal (z-score),[8],-0.257
same,glycan array binding signal (z-score),[9],-0.333
same,glycan array binding signal (z-score),[10],-0.367
same,glycan array binding signal (z-score),[11],-0.233
same,glycan array binding signal (z-score),[12],-0.194
same,glycan array binding signal (z-score),[13],0.641
same,glycan array binding signal (z-score),[14],-0.08
same,glycan array binding signal (z-score),[15],-0.242
same,glycan array binding signal (z-score),[16],-0.231
same,glycan array binding signal (z-score),[17],-0.265
same,glycan array binding signal (z-score),[18],0.077
same,glycan array binding signal (z-score),[19],-0.21
same,glycan array binding signal (z-score),[20],0.069
same,glycan array binding signal (z-score),[21],-0.31
same,glycan array binding signal (z-score),[22],-0.353
same,glycan array binding signal (z-score),[23],-0.36
same,glycan array binding signal (z-score),[24],1.01
same,glycan array binding signal (z-score),[25],1.68
same,glycan array binding signal (z-score),[26],-0.196
same,glycan array binding signal (z-score),[27],0.115
same,glycan array binding signal (z-score),[28],1.66
same,glycan array binding signal (z-score),[29],-0.202
same,glycan array binding signal (z-score),[30],0.403
same,glycan array binding signal (z-score),[31],-0.332
same,glycan array binding signal (z-score),[32],-0.009
same,glycan array binding signal (z-score),[33],1.84
same,glycan array binding signal (z-score),[34],-0.282
same,glycan array binding signal (z-score),[35],-0.315
same,glycan array binding signal (z-score),[36],-0.491
same,glycan array binding signal (z-score),[37],-0.152
same,glycan array binding signal (z-score),[38],-0.34
same,glycan array binding signal (z-score),[39],0.21
same,glycan array binding signal (z-score),[40],-0.186
same,glycan array binding signal (z-score),[41],-0.094
same,glycan array binding signal (z-score),[42],-0.382
same,glycan array binding signal (z-score),[43],-0.117
same,glycan array binding signal (z-score),[44],-0.233
same,glycan array binding signal (z-score),[45],-0.201
